Toxic doses and inconclusive results are not listed. Certain results were filed several times, with different values. The list is limited to them. The source may hold further records. Results that share an entry do not match, cause unknown; some may be repeats, others may stem from another dose, organism or construct than stated.

The subject of the assay is L1210 leukemia ip in BDF1 mice, survival T/C. Description: NCI In Vivo Anticancer Drug Screen. Data for tumor model L1210 Leukemia (intraperitoneal) in B6D2F1 (BDF1) mice. To be noted: endpoint: mean survival time, higher = longer survival.

For `CN(C)CCNCc1ccccc1`, where the note is “dose: 100.0 mg/kg/injection, schedule: Q01DX001 (ip), vehicle: saline”, the T/C is given as 98 % of control, 99 % of control, 181 % of control.

With `COc1ccccc1NC(=O)N(CCCl)N=O`, the T/C (dose: 2.3 mg/kg/injection, schedule: Q01DX009 (ip), vehicle: carboxymethylcellulose (CMC)) is 117 % of control and 155 % of control.

On to `S=P(N1CC1)(N1CC1)N1CC1`, for which the T/C (dose: 4.0 mg/kg/injection, schedule: Q04DX003 (ip), vehicle: saline) was 105 % of control and 153 % of control; the T/C (dose: 10.0 mg/kg/injection, schedule: Q01DX001 (ip), vehicle: saline) was 114 % of control and 150 % of control; the T/C (dose: 16.0 mg/kg/injection, schedule: Q01DX001 (ip), vehicle: saline) was 120 % of control, 164 % of control, 190 % of control.

Turning to `CC1(C)CN1P(=S)(N1CC1(C)C)N1CC1(C)C` (stereo unspecified), the T/C (dose: 50.0 mg/kg/injection, schedule: Q01DX009 (ip), vehicle: saline) is 110 % of control and 181 % of control.

The values are drawn from PubChem BioAssay AID248 (DTP/NCI, 2004).
